# Test results as given in PubChem BioAssay AID588342 (National Center for Advancing Translational Sciences (NCATS), 2011).
# Screen size: about 360,000 compounds; about 25,000 (6.9%) were called active. The shares of active, inactive and inconclusive entries below differ from those in the screen. The call rests on the fitted dose curve; in most records, active means well fitted inhibition curve with a large enough effect; inconclusive means small, poorly fitted or top-dose-only effect; inactive means flat fitted curve, though single readings scatter. Potencies of inconclusive entries are doubtful fits and often do not repeat.
# Biological target: Luciferin 4-monooxygenase (Photinus pyralis) (UniProt P08659)
# Test: qHTS profiling assay for firefly luciferase inhibitor/activator using purifed enzyme and Km concentrations of substrates (counterscreen for miR-21 project); further: nearly all actives have a fitted effect of over 55% in size;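 on activity change, negative = inhibition: plate controls were vehicle for no effect and reference inhibitor for full effect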
# Settings: purified FLuc, luminescence inhibition; activity change, negative = inhibition: at 57.5 µM (top of the series)
# Summary of the method: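 Biochemical qHTS of compounds, final roughly 60 µM downward over six points, against 10 nM purified firefly luciferase using Km concentrations of substrates (10 uM D-luciferin, 10 uM ATP) in Tris acetate pH 7.5 buffer; luminescence output.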
# Potency means the concentration at half of the fitted maximal effect; tags describe the fitted curve by direction and shape.
# UniProt P08659, sequence (P08659 whole entry, looked up): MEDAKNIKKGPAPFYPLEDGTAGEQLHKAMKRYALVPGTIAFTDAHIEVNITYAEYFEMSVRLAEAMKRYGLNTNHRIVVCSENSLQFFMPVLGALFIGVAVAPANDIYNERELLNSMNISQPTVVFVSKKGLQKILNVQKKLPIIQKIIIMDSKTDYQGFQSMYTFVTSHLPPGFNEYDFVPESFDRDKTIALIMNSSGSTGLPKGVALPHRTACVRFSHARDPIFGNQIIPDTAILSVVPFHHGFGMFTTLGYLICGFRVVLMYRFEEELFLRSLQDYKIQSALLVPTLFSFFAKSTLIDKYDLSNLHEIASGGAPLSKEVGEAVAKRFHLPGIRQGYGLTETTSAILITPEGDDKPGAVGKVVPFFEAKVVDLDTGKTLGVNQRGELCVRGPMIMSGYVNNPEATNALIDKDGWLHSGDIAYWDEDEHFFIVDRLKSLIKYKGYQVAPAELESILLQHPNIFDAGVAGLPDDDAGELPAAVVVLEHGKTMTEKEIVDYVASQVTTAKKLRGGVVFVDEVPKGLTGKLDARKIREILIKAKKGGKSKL
Compound,Potency,"activity change, negative = inhibition"
c1ccc2c(c1)CCN(C1=Nc3cccc4cccc1c34)C2,active: 6.75 µM,–
O=C(c1ccc(Cl)cc1)n1cnc2ccccc21,"inconclusive: 37.9 µM [inhibitor, partial curve, poor fit]",–
Cc1ccc2nc(N3CCN(C)CC3)c(C#N)cc2c1,"inconclusive: 19 µM [inhibitor, partial curve, poor fit]",–
Oc1ccc(/C=C/c2cnccn2)cc1,"inconclusive: 21.3 µM [inhibitor, partial curve]",–
CCOc1cc(/C=C(\C#N)C(=O)Nc2cccc(C(=O)O)c2)cc(Br)c1OC(=O)c1ccc(OC)cc1,"inconclusive: 21.3 µM [inhibitor, partial curve, poor fit]",–
COc1cccc(NC(=O)Nc2nccc(C)n2)c1,active: 1.2 µM,–
Cc1c(C(=O)Nc2ccc(N3CCOCC3)cc2)cccc1[N+](=O)[O-],–,inactive: 2.8%
CCC1=NN2C(=N)/C(=C\c3cccn3-c3c(C)cccc3C)C(=O)N=C2S1,"inconclusive: 21.3 µM [inhibitor, single point]",–
Cc1cc(C)c2c(n1)sc1c(N3CCCCC3)ncnc12,"inconclusive: 16.9 µM [inhibitor, partial curve]",–
Cc1cc(C)n(-c2ccc(C(=O)Nc3cccc(S(=O)(=O)N(C)C)c3)cc2)n1,"inconclusive: 21.3 µM [inhibitor, partial curve, poor fit]",–
CCOC(=O)C1=C(C)N=c2s/c(=C/c3cccc([N+](=O)[O-])c3O)c(=O)n2C1c1ccccc1 (stereo not drawn),"inconclusive: 37.9 µM [inhibitor, single point]",–
O=C(CCN1C(=O)/C(=C\c2ccccc2)SC1=S)N1CCCCC1,"inconclusive: 12 µM [inhibitor, partial curve, poor fit]",–
Cc1ccc(NC(=O)c2ccc3nsnc3c2)c(C)c1,"inconclusive: 23.9 µM [inhibitor, single point]",–
CCOc1cc2sc(N3CCC(C(=O)Nc4ccc(CC)cc4)CC3)nc2cc1Br,"inconclusive: 23.9 µM [inhibitor, single point]",–
CCN(CC)c1ccc2nc3ccccc3[n+](CC)c2c1,active: 15.1 µM,–
Cc1nc(Nc2ccc(O)cc2)c2c3c(sc2n1)CCCC3,"inconclusive: 21.3 µM [inhibitor, single point]",–
Cc1ccc(S(=O)(=O)NC(=O)Nc2c(C)n(C)n(-c3ccccc3)c2=O)cc1,–,inactive: 2.41%
CCOc1cc(C(=O)CCC(=O)OCC(=O)Nc2ccc(C)c(S(=O)(=O)N(C)C)c2)ccc1O,active: 19 µM,–
CN1CCN(NC(=O)c2cc(-c3ccc(Cl)s3)nc3ccccc23)CC1,"inconclusive: 30.1 µM [inhibitor, partial curve, poor fit]",–
CCOC(=O)c1nnc(-c2ccccc2)[nH]c1=O,"inconclusive: 37.9 µM [inhibitor, single point]",–
COC(=O)CSc1nc2ccc(C)cc2[nH]1,"inconclusive: 26.9 µM [inhibitor, partial curve, poor fit]",–
Cc1ccc(NC(=O)Cc2nnc(SCC(=O)Nc3ccc(N4CCOCC4)cc3)n2C)cc1,active: 12 µM,–
Cc1cc(Cl)ccc1OCC(=O)NC1CCCC1,"inconclusive: 33.8 µM [inhibitor, single point]",–
OCCOCCOc1ccccc1OCCOCCO,–,inactive: 4.05%
CN(C)/C=C(/C(=O)c1ccc(Cl)cc1)n1cncn1,–,inactive: 6.01%

Compound,Potency,"activity change, negative = inhibition"
O=C(OCC(=O)N1CCOCC1)c1ccc2ccccc2c1,"inconclusive: 19 µM [inhibitor, partial curve, poor fit]",–
CCN(CC)CCCNc1oc(/C=C/c2ccc(OC)c(OC)c2)nc1C#N,–,inactive: -2.75%
CCN1CCN(c2cc(C)c3cc(NC(=O)c4cccs4)ccc3n2)CC1,"inconclusive: 23.9 µM [inhibitor, partial curve]",–
CCCSc1nc(N)c2c3c(sc2n1)CN(C)CC3,"inconclusive: 26.9 µM [inhibitor, single point]",–
CNc1c(NC(=O)c2ccc(OC)c(OC)c2)c(=O)oc2ccccc12,–,inactive: 5.48%
Cc1ccc(C)c(N(C)C(=O)CCS(=O)(=O)c2cccc3nonc23)c1,–,inactive: -0.962%
COc1ccc(C(=O)NOCc2ccccc2)cc1,active: 1.9 µM,–
CCC(C(=O)OCC(=O)Nc1cc(C)ccc1OC)c1ccccc1 (stereo not drawn),"inconclusive: 30.1 µM [inhibitor, single point]",–
CC(=O)SCC(=O)N=c1sc2cc(F)ccc2n1C,"inconclusive: 23.9 µM [inhibitor, single point]",–
O=c1cc(-c2ccccc2)[nH]n1-c1nc2ccccc2[nH]1,active: 19 µM,–
Cc1ccc(N/C(=C\C(=O)c2ccccc2)C(=O)O)cc1,"inconclusive: 21.3 µM [inhibitor, partial curve, poor fit]",–
O=C(COc1ccccc1)Nc1cccc2nsnc12,"inconclusive: 16.9 µM [inhibitor, partial curve]",–
CCN(C1CCCCC1)S(=O)(=O)CCNC(=O)c1ccc2c(c1)OCO2,–,inactive: 1.62%
COCCCC1CCN(C(=O)C2CCC(=O)N(C3CCCC3)C2)CC1 (stereo not drawn),–,inactive: -0.869%
CN(C)S(=O)(=O)c1cccc(NC(=O)COC(=O)c2cc3ccccc3oc2=O)c1,active: 13.5 µM,–
O=C(Nc1ccc2c(c1)OCO2)N1CCN(c2ccccc2Cl)CC1,active: 19 µM,–
COCC(C)NC(=O)C1CC(=O)N(c2ccc(C)cc2)C1 (stereo not drawn),–,inactive: 0.499%
O=C(Nc1ccccc1C(=O)O)c1ccc(Br)c(S(=O)(=O)NCc2ccccc2)c1,"inconclusive: 37.9 µM [inhibitor, single point]",–
Cc1cc(Nc2ccccc2F)n2nc(-c3ccccc3)nc2n1,"inconclusive: 6.75 µM [inhibitor, partial curve, poor fit]",–
COc1ccc2c(c1OC)C(=O)N1N=C(c3ccc(Cl)cc3)CC21 (stereo not drawn),"inconclusive: 23.9 µM [inhibitor, single point]",–
CCOCCc1c(O)nc(SCCOc2ccc(C)c(C)c2)[nH]c1=O,"inconclusive: 30.1 µM [inhibitor, partial curve, poor fit]",–
Cc1ccc(NC(=O)/C=C/c2ccco2)nc1,active: 6.01 µM,–
CN(C(=O)COC(=O)c1cc(-c2ccc(Cl)s2)nc2ccccc12)C1CCS(=O)(=O)C1 (stereo not drawn),"inconclusive: 37.9 µM [inhibitor, partial curve, poor fit]",–
O=C(CN1C(=O)CCC1=O)Nc1nc(-c2ccc(Oc3ccccc3)cc2)cs1,"inconclusive: 33.8 µM [inhibitor, single point]",–
COc1ccc2c(c1)c(=O)oc1c(C)c(OC(C)C(=O)N[C@@H](Cc3c[nH]c4ccc(O)cc34)C(=O)O)ccc12 (stereo partly drawn),active: 12 µM,–

Compound,Potency,"activity change, negative = inhibition"
Cc1ccc(S(=O)(=O)Oc2cccc(/C=N/Nc3ccc(C(=O)O)cc3)c2)cc1,"inconclusive: 26.9 µM [inhibitor, single point]",–
CCC(=O)Nc1nc(-c2ccc3c(c2)CC(C)N3S(C)(=O)=O)cs1 (stereo not drawn),"inconclusive: 23.9 µM [inhibitor, partial curve, poor fit]",–
Cc1cccc(NC(=O)Cn2nnc(-c3nc(-c4ccncc4)no3)c2N)c1,–,inactive: -0.268%
CC(C)OC(=O)C(C)(C)Oc1ccc(C(=O)c2ccc(Cl)cc2)cc1,"inconclusive: 26.9 µM [inhibitor, partial curve, poor fit]",–
Brc1ccc(-c2ncc3ccccn23)cc1,active: 13.5 µM,–
COc1c(O)cc2oc(-c3ccc(O)c(O)c3)cc(=O)c2c1O,active: 19 µM,–
CCOC(=O)N1CCC(NC(=O)c2cc3c(C)nc4ccccc4c3o2)CC1,–,inactive: -1.74%
Fc1ccc(N2Cc3ccsc3C=N2)cc1,"inconclusive: 37.9 µM [inhibitor, partial curve, poor fit]",–
COc1ccc(OCc2ccc(C(=O)N3CCOCC3)cc2)cc1,"inconclusive: 26.9 µM [inhibitor, partial curve, poor fit]",–
Cc1nnc(NC(=O)c2csc3c2CCCC3)s1,"inconclusive: 6.75 µM [inhibitor, partial curve]",–
O=C(CN1CCC(Cc2ccccc2)CC1)NC(=O)NC1CCCCC1,–,inactive: 2.29%
O=C(Nc1ccc(Cl)c(Cl)c1)N1CCCCCC1,active: 6.01 µM,–
CCNc1nc(NCC)n2c(SCC(=O)Nc3cc(OC)ccc3OC)nnc2n1,–,inactive: 6.17%
COC(=O)c1sc2[nH]c(=S)n(N)c(=O)c2c1C,"inconclusive: 30.1 µM [inhibitor, single point]",–
O=C(NN=C1c2ccccc2-c2ccccc21)c1ccccc1Br,"inconclusive: 12 µM [inhibitor, partial curve, poor fit]",–
COc1cc(CN2CCC(C(=O)NC3CCCC3)CC2)ccc1O,–,inactive: 2.64%
CC1=NN(c2ccccc2)C(=O)/C1=C\C=C1/N(C)c2ccccc2C1(C)C,"inconclusive: 37.9 µM [inhibitor, single point]",–
O=C(c1ccc(Cl)cc1)c1cnc(Nc2ccccc2)s1,"inconclusive: 0.953 µM [inhibitor, full curve]",–
CCN(CC)CCn1c2ccccc2c2n[nH]c(=S)nc21,"inconclusive: 26.9 µM [inhibitor, partial curve, poor fit]",–
N#C/C(=C/c1ccccc1[N+](=O)[O-])c1nc(C2CC2)cs1,"inconclusive: 37.9 µM [inhibitor, partial curve, poor fit]",–
COC(=O)c1c(-c2ccccc2)csc1NC(=O)c1c(-c2ccccc2)noc1C,–,inactive: 2.28%
CN(CCC#N)C(=O)CSc1ncnc2sc(-c3ccccc3)cc12,active: 10.7 µM,–
CCOC(=O)C1(Cc2ccc(OC)cc2)CCN(C(=O)[C@@H]2CCCN2C(C)=O)CC1,"inconclusive: 30.1 µM [inhibitor, partial curve, poor fit]",–
